From the RNAGym collection of RNA variant scans (doi:10.7554/elife.90254) come the findings set out here.

The chains are these.
B1: OR4K15 (parent)
chain: GUUAACGGUCAUAGGCCAUGGAAACUAGGAGCACCAUUUCGCUGCCAGUGAAGAAAUGAACAAAGAAAAUCUGGGCCAGGCAGGCAUCAAAAGAAAUAGUCUUGCGCUCAACCAGAAAGUCUGUAAUCAUUUUAAGGGUA

Read counts are not given, so values of variants with three or more changes are uncertain.

In this series the parent is B1. The series is described as follows: self-cleavage, relative activity (ratio to wild type); higher = more cleavage; in vitro, sequencing; the parent is a self-cleaving ribozyme.
As for GUUAACGGUCAUAGGCCAUGGAAACUAGGAGCACCAUUUCGCUGCCAGUGAAGAAAUGAACGAAGAGAAUCUGGGCCAGGCAGGCAUCAAAAGAAAUAGUCUUGCGCUCAACCAGAAAGUCUGUAAUCACUUUAAGGGUA, the self-cleavage came out at 1.17.

Take GUUAACGGUCAUAGGCCAUGGAAACUAGGAGCACCAUUUCGCUGCCAGUGAAGAAAUGAACGAAGAGAAUCUGGGCCAGGCAGGCAUCAAAAGAAACAGUCUUGCGCUCAACCUGAAAGUCUGUAAUCAUUUUAAGGGUA: the self-cleavage was found to be 0.05.

Take GUUAACGGUCAUAGGCCAUGGAAACUAGGAGCACCAUUUCGCUGCCAGUGAAGAAAUGAACCAAGAAAAUCUGGGCCAGGCAGGCAUCAAAAGAGAUAGUCUUGCGCUCAGCCAGAAAGUCUGUGAUCAUUUUAAGGGUA: the self-cleavage was 0.

Regarding GUUAACGGUCAUAGGCCAUGGAAACUAGGAGCACCAUUUCGCUGCCAGUGAAGAAAUGAACCAAGAAAAUCUGGGCCAGGCAGGCAUCAAAAGAAAUAGUCUUGCGCUCAACCAGAAAGUCUGCAAUCACUUUAAGGGUA, the self-cleavage turned out to be 0.8.

For the variant GUUAACGGUCAUAGGCCAUGGAAACUAGGAGCACCAUUUCGCUGCCAGUGAAGAAAUGAACGAAGUAAAUCUGGGCCAGGCAGGCAUCAAAAGAAAUAGUCUUGCGCUCAACCAGAAAGUCUGUAACCAUUUUAAGGGUA, the self-cleavage came to 0.64.

Turning to GUUAACGGUCAUAGGCCAUGGAAACUAGGAGCACCAUUUCGCUGCCAGUGAAGAAAUGAACCAAGAAAAUCUGGGCCAGGCAGGCAUCAAAAGGAAUAGUCUUGCGCUCAACCAGAAAGUCUGUAUUCAUUUUAAGGGUA, the self-cleavage stood at 1.5.

Take GUUAACGGUCAUAGGCCAUGGAAACUAGGAGCACCAUUUCGCUGCCAGUGAAGAAAUGAACGAAGAAGAUCUGGGCCAGGCAGGCAUCAAAAGAAAUAGUCUUGCGCUCAACCAGAAAGUCCGUAAUCAUUUUAAGGGUA: the self-cleavage was determined as 0.83.

For the variant GUUAACGGUCAUAGGCCAUGGAAACUAGGAGCACCAUUUCGCUGCCAGUGAAGAAAUGAACGAAGAAGAUCUGGGCCAGGCAGGCAUCAAAAGAAAUAGUCUUGCGCUCAACCGGAAAGUCUGUAAUCUUUUUAAGGGUA, the self-cleavage is 0.05.

With GUUAACGGUCAUAGGCCAUGGAAACUAGGAGCACCAUUUCGCUGCCAGUGAAGAAAUGAACGAAGAGAUUCUGGGCCAGGCAGGCAUCGAAAGAAAUAGUCUUGCGCUCAACCAGAGAGUCUGUAAUCAUUUUAAGGGUA, the self-cleavage came out at 1.39.

For the variant GUUAACGGUCAUAGGCCAUGGAAACUAGGAGCACCAUUUCGCUGCCAGUGAAGAAAUGAACGAAGAAGAUCUGGGCCAGGCAGGCAUCAAAAGAAAUAGUCUUGCGCUCAGCCAGAAAGUCCGUAAUCAUUUUAAGGGUA, the self-cleavage is 0.01.

Consider GUUAACGGUCAUAGGCCAUGGAAACUAGGAGCACCAUUUCGCUGCCAGUGAAGAAAUGAACGAAGAAAGUCUGGGCCAGGCAGGCAUCAAAAGAAAUAGUCUUGCGCUCAACCAGAAAGCCUGUAAUCAUUUUAAGGGUA, for which the self-cleavage was determined as 1.03.

Consider GUUAACGGUCAUAGGCCAUGGAAACUAGGAGCACCAUUUCGCUGCCAGUGAAGAAAUGAACGAAGAAAAUCUGGGCCUGGCAGGCAUCGAAAGAAAUAGUCUUGCGCUCAACCAGAAAGUCUGUAAUCAUUUCAAGGGUA, for which the self-cleavage is 0.29.

For GUUAACGGUCAUAGGCCAUGGAAACUAGGAGCACCAUUUCGCUGCCAGUGAAGAAAUGAACGGAGAAAAUCUGGGUCGGGCAGGCAUCAAAAGAAAUAGUCUUGCGCUCAACCAGAAAGUCUGUAAUCAUUUUAAGGGUA, the self-cleavage is 0.31.

As for GUUAACGGUCAUAGGCCAUGGAAACUAGGAGCACCAUUUCGCUGCCAGUGAAGAAAUGAACGAAGAAAAUCUGGGCCGGGCAGGCAUCAAAAGAAAUAGUCUUGCGCCCAACCAGAAAGUCUGUAAUCAUUUUAAGGGUA, the self-cleavage was 0.02.

As to GUUAACGGUCAUAGGCCAUGGAAACUAGGAGCACCAUUUCGCUGCCAGUGAAGAAAUGAACGAAGAAAAUCUGGGCCGGGCAGGCAUCAAAAGAAAUAGUCUUGCGCUCAACCAGAAAGUCUGUAAUCACUUUAAGGGUA, the self-cleavage stood at 0.1.

On to GUUAACGGUCAUAGGCCAUGGAAACUAGGAGCACCAUUUCGCUGCCAGUGAAGAAAUGAACGGAGAAAAUCUGGGCCAAGCAGGCAUCAAAAGAAAUAGUCUUGCGCUCAACCAGAAAGUCUGUAAUCAUUUUAAGGGUA, for which the self-cleavage turned out to be 0.17.

Regarding GUUAACGGUCAUAGGCCAUGGAAACUAGGAGCACCAUUUCGCUGCCAGUGAAGAAAUGAACGAAGAAGAUCUGGGCCAGGCAGGCACCAAAAGAAAUAGUCUUGCGCUCGACCAGAAAGUCUGUAAUCAUUUUAAGGGUA, the self-cleavage amounted to 0.09.

GUUAACGGUCAUAGGCCAUGGAAACUAGGAGCACCAUUUCGCUGCCAGUGAAGAAAUGAACGAGGAAAAUCUGGGCCAGGCAGGCAUCUGAAGAAAUAGUCUUGCGCUCAACCAGAAAGUCUGUAGUCACUUUAAGGGUA: the self-cleavage worked out at 0.52.

With GUUAACGGUCAUAGGCCAUGGAAACUAGGAGCACCAUUUCGCUGCCAGUGAAGAAAUGAACGAAGAAAAUCUGGGCCGGGCAGGCAUCAAAAGAAAUAGUCUUGCGCUCUACCAGAAAGUCUGUAAUCAUUUUAAGGGUA, the self-cleavage was found to be 0.69.

Regarding GUUAACGGUCAUAGGCCAUGGAAACUAGGAGCACCAUUUCGCUGCCAGUGAAGAAAUGAACCAAGAAUAUCUGGGCCAGGCAGGCAUCAAAAGGAAUAGUCAUGCGCUCAACCAGAAAGUCUGUAAUCAUUUUAAGGGUA, the self-cleavage is 0.58.

Consider GUUAACGGUCAUAGGCCAUGGAAACUAGGAGCACCAUUUCGCUGCCAGUGAAGAAAUGAACGAGGAAAAUCUGGGCCAGGCAGGCAUCAAAAGAAGUAGUCUCGCGCUCAACCAGAAAGUCUGUAAUCAUUUUAAGGGUA, for which the self-cleavage amounted to 0.22.
